According to the supplement of paper PMC10126150:
Sequences with one replicate were seen in a single cluster, so their values are uncertain.

Tested on: ATP
Experiment: switch fluorescence ratio, 500 uM ATP over buffer (Cy3 cluster intensity, sum of 5 cycles each) (fold (ratio)); higher = stronger signal-on switching upon ATP binding; sequences stand for … in TCGTCGGCAGCGTCAGATGTGTATAAGAGACAGTTTTTTTTTTTTTTTTTTTTTTTTT…TC
Conditions: aptamer strand: ATP DNA aptamer (quencher-CACCTGGGGGAGTATTGCGGAGGAAGG + anchor), 100 nM annealed; ATP concentration: 500 uM; one replicate
Outline: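 Per cluster, summed Cy3 intensity from the target cycles was divided by that from the buffer cycles to give the fluorescence ratio, then averaged per switch-domain sequence. Clusters outside 100-1000 RFU were excluded. The Cy3-labelled switching-strand clusters, on a modified Illumina MiSeq flow-cell, were annealed to 100 nM quencher-labelled ATP aptamer and imaged in selection buffer, then after 15 min with 500 uM ATP at 22 °C, for five cycles with NaOH stripping and re-annealing between them.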
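Also: ATP exposure 15 min at 22 °C before imaging.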

Row | Sequence | switch fluorescence ratio
1 | TAAAGCAAAT | 0.994
2 | TCTGCTTAGT | 0.966
3 | GCCGACCGGA | 0.98
4 | CAATGAGATG | 0.959
5 | ACGTATATGG | 1.16
6 | TCTCAGGCAA | 3.87
7 | CGACGTAGTA | 1.32
8 | GCGTCGAGG | 1.06
9 | CTCTGTTTTT | 0.946
10 | GCGTGGCGCC | 1.01
11 | GGTTGGCACG | 1.03
12 | TATAATCGC | 1.01
13 | GATGCTAGAG | 1.03
14 | AAGTCAAAAA | 1.02
15 | GCTCGTCTCC | 0.98
16 | TTATCGAAGC | 1.14
17 | ATAGTAGCAC | 1.01
18 | ACTTCTGTAG | 1.45
19 | TAGTGATGTG | 0.968
20 | CCTTTCGGCA | 1.35
21 | TTACTTGGTA | 1.01
22 | ACGTAGGACT | 1.03
23 | ATGTTGTCCG | 0.93
24 | TCGTTATTAG | 1.02
25 | TATTCTTATT | 0.998
26 | GCATACCCTC | 1.13

Row | Sequence | switch fluorescence ratio
27 | ACATGGGTGA | 0.993
28 | CGCATGGATT | 1.03
29 | GGTGGAAAA | 0.987
30 | GGGCGCAGGC | 0.988
31 | ATGATTGAGA | 1.11
32 | CGGAGTGTTG | 0.944
33 | TCACGCCAAT | 1.55
34 | ATCAGGAGGG | 0.996
35 | TATCCCGTAC | 1.43
36 | TTCATCTATT | 1.03
37 | ATAATACCAA | 1.01
38 | CCGTTATCGA | 1.22
39 | GACATGGTGG | 1
40 | GTGTGCTAGA | 1.04
41 | TAACGGAAT | 1.11
42 | TTGCGTGTAT | 1.01
43 | GGATTGTAGC | 0.99
44 | ATATTGCGGT | 1
45 | AGAGGATCAT | 0.94
46 | CAATGGTGCA | 1.04
47 | GCTTCATGGA | 1.03
48 | TGTGGAACGC | 1.01
49 | TAAACGTAGG | 0.983
50 | TTGAAAGTTG | 1.11
51 | TCCATTGCTG | 1.03
52 | GCGATTATAA | 1.05

Row | Sequence | switch fluorescence ratio
53 | ACGGCTGGTC | 0.961
54 | GTATGTTAAT | 0.955
55 | ATGTTCGTAC | 0.968
56 | ATGGCGGTGC | 1.03
57 | CCCATTTCT | 0.999
58 | TGAATGGGCC | 0.94
59 | GCTCCACAGC | 1.24
60 | CAGGACATA | 1.03
61 | TTCAATCCTC | 1.21
62 | TTATAAATGA | 0.991
63 | TATGCACATG | 1.02
64 | ATTGACCGAC | 1.56
65 | TTGTGCGACG | 0.944
66 | AAAAGTATAT | 1.02
67 | CAAGGATATG | 1
68 | CATTAACCAC | 0.995
69 | ACATGGATCC | 1
70 | TCAATGGGTT | 0.983
71 | CTTTCCACG | 1.09
72 | CTCGATGTAT | 1.07
73 | TTGACCTG | 1.04
74 | CTAGTATGGG | 0.948
75 | CTCAAAAGCG | 1.01
76 | CGGCAATCG | 1.57
77 | AGCGATCTTC | 1.04
